Laboratory results reported in ChEMBL document CHEMBL1201862, “PubChem BioAssay data set” (2004).
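Five compound concentrations were applied to cells in 96-well plates for 48 hours; endpoints were derived by simple linear interpolation of the resulting dose-response curve. GI50 = concentration required for 50% inhibition of growth.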 Activity calls are given as the source filed them. Cut-off read from the data, not from the text of the source: active = GI50 up to about 1.1 µM and inactive = higher.

Assays:
Assay in all cases: DTP human tumour cell line panel, 48 h
T47D = system: T47D
HCT-15 = system: HCT-15
RPMI-8226 = system: RPMI-8226
DLD-1 = system: DLD-1
CCRF-CEM = system: CCRF-CEM
HOP-18 = system: HOP-18
IGROV-1 = system: IGROV-1
786-0 = system: 786-0
SF-295 = system: SF-295
PC-3 = system: PC-3
LXFL 529 = system: LXFL 529
MOLT-4 = system: MOLT-4
SK-MEL-2 = system: SK-MEL-2
SF-268 = system: SF-268
HOP-62 = system: HOP-62
MDA-MB-231 = system: MDA-MB-231
MDA-N = system: MDA-N
SK-MEL-5 = system: SK-MEL-5
A549 = system: A549
M14 = system: M14
M19-MEL = system: M19-MEL
HCT-116 = system: HCT-116
SNB-19 = system: SNB-19
HOP-92 = system: HOP-92
SNB-78 = system: SNB-78
Hs-578T = system: Hs-578T
NCI-H23 = system: NCI-H23
SNB-75 = system: SNB-75
DMS-114 = system: DMS-114
SN12C = system: SN12C
Malme-3M = system: Malme-3M
LOX IMVI = system: LOX IMVI
K562 = system: K562
A498 = system: A498
HT-29 = system: HT-29
RXF 393 = system: RXF 393
OVCAR-5 = system: OVCAR-5
DMS-273 = system: DMS-273
SR = system: SR
TK-10 = system: TK-10
COLO 205 = system: COLO 205
DU-145 = system: DU-145
UO-31 = system: UO-31
HCC 2998 = system: HCC 2998
NCI/ADR-RES = system: NCI/ADR-RES
UACC-257 = system: UACC-257
MCF7 = system: MCF7
SK-OV-3 = system: SK-OV-3
MDA-MB-435 = system: MDA-MB-435
SK-MEL-28 = system: SK-MEL-28
SF-539 = system: SF-539
NCI-H226 = system: NCI-H226
XF498 = system: XF498
OVCAR-4 = system: OVCAR-4
HL-60 = system: HL-60
NCI-H460 = system: NCI-H460
BT-549 = system: BT-549
NCI-H522 = system: NCI-H522
SW-620 = system: SW-620
CAKI-1 = system: CAKI-1
UACC-62 = system: UACC-62
U-251 = system: U-251
KM-20L2 = system: KM-20L2
OVCAR-8 = system: OVCAR-8
EKVX = system: EKVX
KM12 = system: KM12
OVCAR-3 = system: OVCAR-3
ACHN = system: ACHN

CCOC(=O)NC1CCc2cc(OC)c(OC)c(OC)c2-c2ccc(OC)c(=O)cc21 (stereo not drawn)
GI50 (T47D): inactive: > 100 µM | GI50 (HCT-15): 0.0251 µM | GI50 (RPMI-8226): active: 0.118 µM | GI50 (DLD-1): active: 0.011 µM | GI50 (CCRF-CEM): active: 0.0311 µM | GI50 (HOP-18): inactive: 41.1 µM | GI50 (IGROV-1): active: 0.0262 µM | GI50 (786-0): active: 0.0245 µM | GI50 (SF-295): active: < 0.01 µM | GI50 (PC-3): active: 0.0458 µM | GI50 (LXFL 529): active: 0.0101 µM | GI50 (MOLT-4): active: 0.0327 µM | GI50 (SK-MEL-2): active: 0.0195 µM | GI50 (SF-268): active: 0.0237 µM | GI50 (HOP-62): active: 0.0296 µM | GI50 (MDA-MB-231): active: 0.0371 µM | GI50 (MDA-N): active: 0.0228 µM | GI50 (SK-MEL-5): active: 0.0161 µM | GI50 (A549): active: 0.0259 µM | GI50 (M14): active: 0.0195 µM | GI50 (M19-MEL): active: < 0.01 µM | GI50 (HCT-116): active: 0.022 µM | GI50 (SNB-19): active: 0.0118 µM | GI50 (HOP-92): active: 0.0192 µM | GI50 (SNB-78): active: < 0.01 µM | GI50 (Hs-578T): active: < 0.01 µM | GI50 (NCI-H23): active: 0.02 µM | GI50 (SNB-75): active: 0.0249 µM | GI50 (DMS-114): active: 0.0108 µM | GI50 (SN12C): active: 0.0259 µM | GI50 (Malme-3M): active: 0.0275 µM | GI50 (LOX IMVI): active: 0.0256 µM | GI50 (K562): active: 0.0208 µM | GI50 (A498): active: 0.0296 µM | GI50 (HT-29): active: 0.0187 µM | GI50 (RXF 393): active: 0.0236 µM | GI50 (OVCAR-5): inactive: 1.16 µM | GI50 (DMS-273): active: < 0.01 µM | GI50 (SR): active: 0.0345 µM | GI50 (TK-10): inactive: 1.14 µM | GI50 (COLO 205): active: 0.0194 µM | GI50 (DU-145): active: 0.0454 µM | GI50 (UO-31): active: 0.568 µM | GI50 (HCC 2998): active: 0.0255 µM | GI50 (NCI/ADR-RES): active: 0.259 µM | GI50 (UACC-257): active: 0.0368 µM | GI50 (MCF7): active: 0.0262 µM | GI50 (SK-OV-3): active: 0.104 µM | GI50 (MDA-MB-435): active: 0.0226 µM | GI50 (SK-MEL-28): inactive: 1.36 µM | GI50 (SF-539): active: 0.0202 µM | GI50 (NCI-H226): active: 0.0935 µM | GI50 (XF498): active: 0.0314 µM | GI50 (OVCAR-4): inactive: 9.59 µM | GI50 (HL-60): active: 0.0192 µM | GI50 (NCI-H460): active: 0.0213 µM | GI50 (BT-549): active: < 0.01 µM | GI50 (NCI-H522): active: 0.018 µM | GI50 (SW-620): active: 0.0212 µM | GI50 (CAKI-1): active: 0.0318 µM | GI50 (UACC-62): active: 0.0153 µM | GI50 (U-251): active: 0.0206 µM | GI50 (KM-20L2): active: < 0.01 µM | GI50 (OVCAR-8): active: 0.0244 µM | GI50 (EKVX): inactive: 15.1 µM | GI50 (KM12): active: 0.0161 µM | GI50 (OVCAR-3): active: 0.0198 µM | GI50 (ACHN): active: 0.0395 µM

O=C1Cc2c([nH]c3ccc(C(F)(F)F)cc23)-c2cc(Br)ccc2N1
GI50 (T47D): inactive: > 100 µM | GI50 (HCT-15): > 100 µM | GI50 (RPMI-8226): inactive: > 100 µM | GI50 (CCRF-CEM): inactive: > 100 µM | GI50 (IGROV-1): inactive: > 100 µM | GI50 (786-0): inactive: > 100 µM | GI50 (SF-295): inactive: > 100 µM | GI50 (PC-3): inactive: > 100 µM | GI50 (MOLT-4): inactive: > 100 µM | GI50 (SK-MEL-2): inactive: > 100 µM | GI50 (SF-268): inactive: > 100 µM | GI50 (HOP-62): inactive: > 100 µM | GI50 (MDA-MB-231): inactive: > 100 µM | GI50 (MDA-N): inactive: > 100 µM | GI50 (SK-MEL-5): inactive: > 100 µM | GI50 (A549): inactive: > 100 µM | GI50 (M14): inactive: > 100 µM | GI50 (HCT-116): inactive: > 100 µM | GI50 (SNB-19): inactive: > 100 µM | GI50 (HOP-92): inactive: > 100 µM | GI50 (Hs-578T): inactive: > 100 µM | GI50 (NCI-H23): inactive: > 100 µM | GI50 (SNB-75): inactive: > 100 µM | GI50 (SN12C): inactive: > 100 µM | GI50 (Malme-3M): inactive: > 100 µM | GI50 (LOX IMVI): inactive: > 100 µM | GI50 (K562): inactive: > 100 µM | GI50 (A498): inactive: > 100 µM | GI50 (RXF 393): inactive: > 100 µM | GI50 (OVCAR-5): inactive: > 100 µM | GI50 (SR): inactive: > 100 µM | GI50 (TK-10): inactive: > 100 µM | GI50 (COLO 205): inactive: > 100 µM | GI50 (DU-145): inactive: > 100 µM | GI50 (UO-31): inactive: > 100 µM | GI50 (HCC 2998): inactive: > 100 µM | GI50 (NCI/ADR-RES): inactive: > 100 µM | GI50 (UACC-257): inactive: > 100 µM | GI50 (MCF7): inactive: > 100 µM | GI50 (SK-OV-3): inactive: > 100 µM | GI50 (MDA-MB-435): inactive: > 100 µM | GI50 (SK-MEL-28): inactive: > 100 µM | GI50 (OVCAR-4): inactive: > 100 µM | GI50 (NCI-H460): inactive: > 100 µM | GI50 (BT-549): inactive: > 100 µM | GI50 (NCI-H522): inactive: > 100 µM | GI50 (SW-620): inactive: > 100 µM | GI50 (CAKI-1): inactive: > 100 µM | GI50 (UACC-62): inactive: > 100 µM | GI50 (U-251): inactive: > 100 µM | GI50 (OVCAR-8): inactive: > 100 µM | GI50 (EKVX): inactive: > 100 µM | GI50 (KM12): inactive: > 100 µM | GI50 (OVCAR-3): inactive: > 100 µM | GI50 (ACHN): inactive: > 100 µM
